# Laboratory results from paper PMC4336329 (PLoS ONE, 2015).
# Hit rate of the full screen: of about 310,000 compounds, about 14,000 (4.5%) showed an effect of 50% or more. The effect is printed as a negative number. Some of the results follow.
# Biological target: human ether-à-go-go-related gene (hERG) potassium channel (human, UniProt Q12809)
# Test: primary screen, population patch clamp on CHO cells stably expressing hERG
# 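Note: peak tail current of the secondary pulse compared with the same well before compound.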
# Sequence of human ether-à-go-go-related gene (hERG) potassium channel (Q12809 whole entry, looked up): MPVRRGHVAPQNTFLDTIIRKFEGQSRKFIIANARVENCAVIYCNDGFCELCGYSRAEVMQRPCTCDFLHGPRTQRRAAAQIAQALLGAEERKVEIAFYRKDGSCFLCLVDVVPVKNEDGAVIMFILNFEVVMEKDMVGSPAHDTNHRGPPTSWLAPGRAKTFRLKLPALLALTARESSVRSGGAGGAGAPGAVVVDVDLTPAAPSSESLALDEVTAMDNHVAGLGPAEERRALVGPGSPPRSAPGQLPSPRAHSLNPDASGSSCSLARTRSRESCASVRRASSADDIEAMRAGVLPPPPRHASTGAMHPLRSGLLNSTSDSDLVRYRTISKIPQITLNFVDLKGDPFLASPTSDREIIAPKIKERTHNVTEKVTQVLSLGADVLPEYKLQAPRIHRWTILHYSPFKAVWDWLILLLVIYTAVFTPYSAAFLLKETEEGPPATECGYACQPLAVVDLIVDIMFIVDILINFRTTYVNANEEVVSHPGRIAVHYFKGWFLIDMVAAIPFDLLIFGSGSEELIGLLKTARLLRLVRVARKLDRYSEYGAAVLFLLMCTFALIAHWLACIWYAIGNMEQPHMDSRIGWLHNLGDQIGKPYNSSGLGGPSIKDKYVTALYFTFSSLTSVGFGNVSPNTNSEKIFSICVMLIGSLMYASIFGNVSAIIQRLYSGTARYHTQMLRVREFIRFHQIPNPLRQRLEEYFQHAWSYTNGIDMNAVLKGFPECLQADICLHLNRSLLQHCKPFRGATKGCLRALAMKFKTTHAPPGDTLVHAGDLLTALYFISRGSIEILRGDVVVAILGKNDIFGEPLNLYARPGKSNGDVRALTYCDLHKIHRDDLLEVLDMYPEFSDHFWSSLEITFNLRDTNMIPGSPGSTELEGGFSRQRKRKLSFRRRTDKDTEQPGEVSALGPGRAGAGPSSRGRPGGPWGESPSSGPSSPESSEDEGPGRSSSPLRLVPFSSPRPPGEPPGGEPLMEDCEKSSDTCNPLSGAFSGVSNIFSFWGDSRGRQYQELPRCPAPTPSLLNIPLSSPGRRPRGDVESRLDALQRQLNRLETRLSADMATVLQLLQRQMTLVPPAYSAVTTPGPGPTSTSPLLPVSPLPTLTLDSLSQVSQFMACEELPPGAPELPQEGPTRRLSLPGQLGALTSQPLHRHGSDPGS
row,Structure (SMILES),"hERG current change (%, negative = inhibition) at 10uM [%]"
1,CN(C)CCNc1c2c(nc3nnnn13)CCCC2,1.62
2,CCOc1ccc(NC(=O)CN(C)C(=O)c2cccnc2Sc2ccc(C)c(C)c2)cc1OCC,0.0885
3,CCN1C(=O)[C@H]2[C@@H](c3ccc(C)cc3)N3C(=O)N(c4ccc(OC)cc4)C(=O)[C@@]3(CC)[C@H]2C1=O,15.7
4,O=C1CCC(=O)N1CC(=O)N(c1ccccc1)c1ccccc1,5.36
5,CCCCCOC(=O)C(C)Sc1n[nH]c(=O)[nH]c1=O (centres unmarked),9.11
6,COc1ccc(NC(=O)CSc2nccn2-c2ccccc2)c(OC)c1,-8.53
7,CCN1C(=O)C(O)(CC(=O)/C=C/C=C/c2ccccc2)c2ccccc21 (centres unmarked),-0.629
8,CCCCSc1nnc(-c2ccc(C)cc2)o1,3.13
9,Cc1nn(CC(=O)NC(C)c2ccccc2)c(=O)c2ccccc12 (centres unmarked),7.18
10,CCN(CC)C(=O)C(=O)c1cccn1-c1cccc(-n2cccc2C(=O)C(=O)N(CC)CC)c1C#N,12.3
11,O=C(COc1cccnc1[N+](=O)[O-])Nc1cccc(S(=O)(=O)N2CCCCC2)c1,1.77
12,O=C(Nc1cccc(C(F)(F)F)c1)Nc1ccc2[nH]c(=O)[nH]c2c1,15.7
13,CCn1c2ccccc2c2cc(NC(=O)CSc3nccc(=O)[nH]3)ccc21,8.6
14,CCOc1cccc(C2C(C#N)=C(N)Oc3cc(C)n(Cc4ccccn4)c(=O)c32)c1OCC (centres unmarked),13.3
15,CCSc1nc2ccccc2n1CC(=O)OC,-1.83
16,CN1C(=O)/C(=C/c2cccn2-c2ccc3ccccc3c2)C(=O)NC1=S,12.2
17,CC(=O)c1ccc(Nc2cc(C)nc3nc(C)nn23)cc1,-49.9
18,COc1ccc2c(c1)C(=O)N(c1ccccc1OC)C(=O)C2,15.1
19,CC(NC(=O)CNC(=O)[C@@H]1Cc2ccccc2CN1)c1ccccc1 (some centres unmarked),8.98

row,Structure (SMILES),"hERG current change (%, negative = inhibition) at 10uM [%]"
1,CCc1cccc(NC(=O)COC(=O)C2CCN(c3ccc(C(F)(F)F)cn3)CC2)c1,-4.68
2,CCCCOc1ccc(C(=O)N(Cc2ccco2)C2CCS(=O)(=O)C2)cc1 (centres unmarked),-30.3
3,Clc1ccc2c(N/N=C/c3cccnc3)ccnc2c1,-42.7
4,CCOC(=O)C(CC)(CCC(=O)O)c1csc(Nc2ccc(C)cc2)n1 (centres unmarked),16.5
5,O=C(NC1CCCc2ccccc21)C1CCN(S(=O)(=O)c2cnc[nH]2)CC1 (centres unmarked),5.04
6,CNC(=O)C(Sc1nc(C)nc2c1oc1ccccc12)C(C)=O (centres unmarked),2.63
7,CCc1nnc(NC(=O)c2sc3nc4c(cc3c2N)CCCCCC4)s1,4.75
8,CCOC(=O)C1=C(C)Nc2nc3ccccc3n2C1c1ccc(O)cc1 (centres unmarked),7.44
9,CC(=O)C1=C(O)C(=O)N(Cc2cccnc2)C1c1ccc(Cl)cc1 (centres unmarked),6.03
10,CCOCc1nnc(NC(=O)C2CCN(C(=O)c3ccco3)CC2)s1,19.8
11,Cc1ccc(C)c(Nc2c([N+](=O)[O-])c(=O)oc3ccccc23)c1,-4.01
12,CCOc1ccc(-n2nnnc2SCC(=O)Nc2cccc(O)c2)cc1,0.0292
13,O=C(COc1ccc(Br)cc1)Nc1ccc2oc(=O)ccc2c1,-7.15
14,OCc1nc2ccccc2n1C/C=C/c1ccccc1,-8.38
15,Cc1[nH]n(-c2ccccc2)c(=O)c1C=NCc1ccco1,-10.7
16,O=C(CSc1nn(-c2ccccc2)c(=S)s1)NC1CCS(=O)(=O)C1 (centres unmarked),1.41
17,CCS(=O)(=O)c1nc(S(=O)(=O)c2ccc(C)cc2)c(N2CCC(C)CC2)s1,-3.02
18,COc1cccc(C(=O)C2CCCN(Cc3cn[nH]c3C3CCCCC3)C2)c1 (centres unmarked),-32.1
19,COc1cccc(CN2CCN(Cc3cc4ccccc4[nH]3)CC2CCO)c1 (centres unmarked),-59.7

row,Structure (SMILES),"hERG current change (%, negative = inhibition) at 10uM [%]"
1,O=C(/C=C/c1cccc(F)c1)c1ccc(N2CCOCC2)cc1,-6.24
2,Cn1c(=O)c(C(=O)NNC(=O)c2ccccc2Br)c(O)c2ccccc21,-1.64
3,COc1ccc(C(=O)Nc2c(Cl)cc(Cl)cc2C(=O)NCc2ccco2)cc1,23.7
4,Br.CC(C)CC1CC(C)(c2csc(NNC(=O)c3ccccc3)n2)OC1=O (centres unmarked),-74.5
5,CC(=O)c1c(C)[nH]c(C(=O)Nc2cccc(C)c2C)c1C,16.8
6,CCOCCCNC(=O)C1CCN(c2cc(C)nc3c(-c4ccc(OC)c(OC)c4)c(C)nn23)CC1,-7.5
7,COc1ccc(CC(=O)NCC(=O)NC(Cc2ccccc2)C(=O)O)cc1 (centres unmarked),26.7
8,COCCN(Cc1cc2cc(C)ccc2[nH]c1=O)S(=O)(=O)c1ccc(Cl)cc1,16.4
9,CC(C)(C)c1ccccc1NC(=S)NC1CCCCC1,6.02
10,O=C(CSc1nc2ccccc2n1CC(=O)N1CCCC1)Nc1ccc2c(c1)OCO2,-37.7
11,O=C1CS/C(=N\C(=O)N2c3ccccc3Sc3ccccc32)N1,5.96
12,C=CCOC(=O)c1[nH]c2c(c1C)C(=O)CC(c1ccco1)C2 (centres unmarked),-1.12
13,Cc1ccc(SCCC(=O)NC2CC2)cc1,14.9
14,COc1cc(/C=N/Nc2nc3ccccc3s2)ccc1OC(=O)c1ccccc1F,5.94
15,CCN1CCN(C(=O)c2cc3c(s2)-c2ccccc2S(=O)(=O)C3)CC1,-11.2
16,COCCCNC(=O)Cn1cc(/C=C2\C(=O)NC(=O)N(c3ccccc3F)C2=O)c2ccccc21,11.6
17,O=C(NCCc1ccccc1)c1cc(=O)c2ccccc2o1,-10.3
18,O=C(O)CCC(=O)NCC1OCCc2ccccc21 (centres unmarked),8.33
